From the supplement of paper PMC3334620
The full ranking holds about 33,000 sequences; the median of “E-score (-0.5 to 0.5)” is about -0.035, and the highest 2% start at about 0.35. This is one part of the list.

Molecular target: T1, Pdr3 (UniProt P33200)
T1 sequence: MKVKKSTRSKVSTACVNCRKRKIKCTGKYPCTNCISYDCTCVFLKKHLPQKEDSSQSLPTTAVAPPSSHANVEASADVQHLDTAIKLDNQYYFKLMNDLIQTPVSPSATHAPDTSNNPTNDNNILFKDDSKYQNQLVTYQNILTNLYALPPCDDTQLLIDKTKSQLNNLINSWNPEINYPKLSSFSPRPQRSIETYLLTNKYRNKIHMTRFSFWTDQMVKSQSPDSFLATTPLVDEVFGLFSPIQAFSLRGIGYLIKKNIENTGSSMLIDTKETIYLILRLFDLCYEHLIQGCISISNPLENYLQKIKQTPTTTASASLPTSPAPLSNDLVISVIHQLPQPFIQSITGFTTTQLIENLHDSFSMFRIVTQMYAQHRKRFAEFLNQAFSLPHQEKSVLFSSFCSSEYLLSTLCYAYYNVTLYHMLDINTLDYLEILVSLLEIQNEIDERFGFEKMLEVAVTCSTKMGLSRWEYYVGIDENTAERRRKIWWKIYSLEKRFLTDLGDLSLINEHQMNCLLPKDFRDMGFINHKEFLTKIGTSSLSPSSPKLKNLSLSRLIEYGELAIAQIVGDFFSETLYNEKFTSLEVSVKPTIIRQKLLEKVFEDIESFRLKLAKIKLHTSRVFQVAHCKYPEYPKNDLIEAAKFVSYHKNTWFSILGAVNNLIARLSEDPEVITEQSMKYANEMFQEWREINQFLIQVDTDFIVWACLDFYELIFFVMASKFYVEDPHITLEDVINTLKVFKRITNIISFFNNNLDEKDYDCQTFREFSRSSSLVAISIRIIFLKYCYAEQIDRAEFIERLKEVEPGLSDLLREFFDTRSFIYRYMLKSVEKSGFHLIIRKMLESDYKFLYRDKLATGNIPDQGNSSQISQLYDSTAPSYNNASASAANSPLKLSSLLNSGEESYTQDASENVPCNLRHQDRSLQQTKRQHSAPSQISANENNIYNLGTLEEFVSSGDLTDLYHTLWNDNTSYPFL
Assay: PBM E-score (8-mer binding enrichment) (E-score (-0.5 to 0.5)); higher = stronger / more preferred TF binding; most listed sequences are background and not binding sites
Settings: protein concentration: 200 nM; construct: GST-full length
How it was run: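 Full-length yeast transcription factors or their DNA-binding domains, GST-tagged and expressed with PURExpress, were applied at about 100-200 nM to universal all-10-mer Agilent arrays. These arrays had been made double-stranded by primer extension on fresh or once-stripped slides. Detection used fluorescent anti-GST, normalisation used masliner, and E-scores for ungapped eight-base words pooled with reverse complements came from the Universal PBM Analysis Suite.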

Compared with AGCGTGTC, AAAGGCGA is lower in “PBM E-score” value: -0.12 for the first, -0.226 for the second.

Going from GGCGCTAC to ACACGGTG, the “PBM E-score” value rises from -0.306 to -0.022.

Compared with CGGATCGA, CCAACCCA is lower in “PBM E-score” value: 0.315 for the first, -0.214 for the second.

Compared with ATTCAGGC, CCACGGTC is lower in “PBM E-score” value: -0.0195 for the first, -0.171 for the second.

First: ACGACCAT
Second: AGGTCAAT
The “PBM E-score” value of the first is lower: -0.192 for the first, -0.126 for the second.

First: GTGCATCA
Second: AGAGCGTC
The “PBM E-score” value of the first is higher: 0.0476 for the first, -0.242 for the second.

First: GGCAGCTA
Second: TATAAGCA
The “PBM E-score” value of the first is higher: -0.00286 for the first, -0.0259 for the second.

Compared with GTACCTGA, AAGCACTG is lower in “PBM E-score” value: -0.0359 for the first, -0.0717 for the second.

Going from CAAGGCAC to GTAGTTCA, the “PBM E-score” value rises from -0.0689 to -0.0233.

First: CCCCGGGC
Second: CTGTGGAC
The “PBM E-score” value of the first is higher: 0.33 for the first, -0.235 for the second.

First: GAGGACTC
Second: CCGTTTGC
The “PBM E-score” value of the first is lower: -0.181 for the first, 0.13 for the second.

First: AACTCCTA
Second: AGATATTG
The “PBM E-score” value of the first is lower: -0.0402 for the first, 0.0543 for the second.

First: TGACGCAA
Second: AACTGCAT
The “PBM E-score” value of the first is lower: -0.165 for the first, 0.0191 for the second.

Compared with CACCGGCG, AATACTGT is lower in “PBM E-score” value: 0.218 for the first, 0.0326 for the second.

Going from AACCTGAT to CCAGCTTA, the “PBM E-score” value rises from -0.14 to -0.117.

Compared with AATATAAG, GGCAGAGA is lower in “PBM E-score” value: 0.103 for the first, 0.0164 for the second.

Going from AGTGGGGG to AGAAGTTG, the “PBM E-score” value falls from -0.259 to -0.343.

First: TAATGTGA
Second: ATGGAGCC
The “PBM E-score” value of the first is higher: -0.0604 for the first, -0.174 for the second.

Compared with ACGAATCA, CGGCCATC is lower in “PBM E-score” value: -0.00777 for the first, -0.0691 for the second.

First: AATATGCT
Second: CAATCCTC
The “PBM E-score” value of the first is higher: -0.177 for the first, -0.228 for the second.

First: ATGTACAG
Second: CAATTCGA
The “PBM E-score” value of the first is higher: -0.118 for the first, -0.283 for the second.

Going from GCTTATCC to CGACGTAG, the “PBM E-score” value falls from 0.167 to -0.231.

Compared with CAGTCCAC, CCAGGTAG is higher in “PBM E-score” value: -0.222 for the first, -0.0187 for the second.

First: ATCAGGAT
Second: CTTCAAAG
The “PBM E-score” value of the first is higher: 0.113 for the first, -0.275 for the second.

Going from ACCGTACG to GGATCGAC, the “PBM E-score” value rises from -0.233 to 0.268.

First: ACAACCCT
Second: ATTTGAAA
The “PBM E-score” value of the first is lower: -0.144 for the first, 0.0362 for the second.

Going from ACATCAAA to CCAAAGGA, the “PBM E-score” value falls from -0.0287 to -0.143.

Compared with AGAGATGC, ATGTCCAG is higher in “PBM E-score” value: -0.0853 for the first, -0.018 for the second.

Compared with ATCCGGAT, ATCCGGTA is lower in “PBM E-score” value: 0.465 for the first, 0.168 for the second.

First: AGAATTTC
Second: AGTTACCC
The “PBM E-score” value of the first is higher: -0.00548 for the first, -0.137 for the second.

Going from GCCAATGA to GACGCTGC, the “PBM E-score” value rises from -0.226 to -0.0563.

Going from ACTCAACA to GGACCGCA, the “PBM E-score” value rises from -0.109 to 0.243.

Compared with CGTGAGGA, CTTACCGC is higher in “PBM E-score” value: -0.063 for the first, 0.151 for the second.

First: AGACGCAG
Second: CTACCAAC
The “PBM E-score” value of the first is lower: -0.105 for the first, -0.0696 for the second.

Compared with ACCCTAGA, ACTAAAGA is lower in “PBM E-score” value: -0.0874 for the first, -0.166 for the second.

Compared with CAGTTTTA, CGGTTCAA is higher in “PBM E-score” value: -0.125 for the first, 0.105 for the second.

Compared with GGGGTAAC, AGCGTGGA is lower in “PBM E-score” value: -0.185 for the first, -0.236 for the second.

Compared with ATTGCTAG, ACAGGCTC is lower in “PBM E-score” value: -0.221 for the first, -0.243 for the second.

First: GGAGCTCA
Second: CACAGCCG
The “PBM E-score” value of the first is lower: -0.0163 for the first, 0.237 for the second.

First: AGTCCTTA
Second: CCGTTAAA
The “PBM E-score” value of the first is lower: -0.108 for the first, 0.125 for the second.

Compared with CTCAGAAC, AACATCGA is higher in “PBM E-score” value: -0.135 for the first, -0.0014 for the second.

Compared with GCCAGGGA, ATCACAAA is lower in “PBM E-score” value: -0.0608 for the first, -0.0899 for the second.

Compared with AGAGAACG, ATGTTTAA is lower in “PBM E-score” value: -0.181 for the first, -0.187 for the second.
